Records with an inconclusive call do not appear. The source holds more than one record for some entries. Only these are listed. An entry can have further records. Values given together repeat one measurement (runs, samples, wells, individuals or studies). Starred links: 1 amine or outer side, 2 acyl side, 3 side chain; linkers in the order of their positions; H or OH if unused. Positions of bridges follow the written chain, without caps; N, C: chain ends. Non-standard residues stand in square brackets, D forms with d. Residues, ends and D or L forms follow the SMILES beside them. Chains are numbered I, II in the order given. Actinocin(9to1) = Cc1c2oc3c(C)ccc(C(=O)[*:1])c3nc-2c(C(=O)[*:2])c(N)c1=O; aThr = C[C@H](O)[C@H](N)C(=O)O; NMeV = CN[C@H](C(=O)O)C(C)C; Sar = CNCC(=O)O
Tested on: nude mice, A549 intrarenal xenograft, tumor weight change
Assay: NCI In Vivo Anticancer Drug Screen. Data for tumor model A549 Human Adenocarcinoma of Lung with characteristics of Type II Alveolar Epithelial cells (intrarenal inoculation) in NU/NU BALB/C (nude) mice
Details: endpoint: mean tumor weight change, higher = larger tumour
Description: The antitumor activity of compounds was measured in mice bearing transplantable tumors. Survival or tumor size were measured and the results are expressed as the measurement made in the treated group (T) divided by the measurement made in the vehicle treated control group (C). The tumor model used in this assay is A549 Human Adenocarcinoma of Lung with characteristics of Type II Alveolar Epithelial cells (intrarenal inoculation) in NU/NU BALB/C (nude) mice

[1] = dose: 50.0 mg/kg/injection, schedule: Q04DX003 (ip), vehicle: Klucel (hydroxypropylcellulose) (HPC)
[2] = dose: 100.0 mg/kg/injection, schedule: Q04DX003 (ip), vehicle: saline with Tween-80
[3] = dose: 200.0 mg/kg/injection, schedule: Q04DX003 (ip), vehicle: Klucel (hydroxypropylcellulose) (HPC)
[4] = dose: 50.0 mg/kg/injection, schedule: Q04DX003 (ip), vehicle: saline with Tween-80

## O=C(/C=C/c1cccnc1)/C=C/c1cccnc1
[1]
  T/C: 54 % of control and 110 % of control

## COC(=O)NC1C(C)OC(OC2C/C=C(/C)C3C=CC4C(OC5CC(OC6CC(OC7CC(O)C(O)C(C)O7)C(OC7CC(O)C(OC)C(C)O7)C(C)O6)C(O)C(C)O5)C(C)CC(C)C4C3(C)/C(O)=C3\C(=O)OC4(CC(C)C(CO)=CC4/C=C\2C)C3=O)CC1(C)[N+](=O)[O-] (stereo not given)
dose: 75.0 mg/kg/injection, schedule: Q04DX003 (ip), vehicle: water
  T/C: 57 % of control and 99 % of control

## CO[C@H](/C(C)=C/C=C/C(C)=C/c1coc(C)n1)[C@H](C)[C@H]1C[C@@H](O)[C@@]2(C)O[C@H]2/C=C/[C@@H](C)[C@@H]2C[C@@H](CC(=O)O2)C[C@H]2O[C@@H]2C(=O)O1
dose: 0.09 mg/kg/injection, schedule: Q01DX009 (ip), vehicle: other
  T/C: 1 % of control and 42 % of control
dose: 0.13 mg/kg/injection, schedule: Q01DX009 (ip), vehicle: other
  T/C: -56 % of control and 24 % of control
dose: 0.2 mg/kg/injection, schedule: Q01DX009 (ip), vehicle: other
  T/C: -56 % of control and 5 % of control

## O=C(O)CCCc1ccc(N(CCCl)CCCl)cc1
dose: 12.0 mg/kg/injection, schedule: Q04DX003 (ip), vehicle: Klucel (hydroxypropylcellulose) (HPC)
  T/C: 20 % of control and 46 % of control
dose: 18.0 mg/kg/injection, schedule: Q04DX003 (ip), vehicle: Klucel (hydroxypropylcellulose) (HPC)
  T/C: 6 % of control and 40 % of control
dose: 27.0 mg/kg/injection, schedule: Q04DX003 (ip), vehicle: Klucel (hydroxypropylcellulose) (HPC)
  T/C: -43 % of control and 28 % of control

## Cc1ccc(C(=O)NC2C(=O)NC(C(C)C)C(=O)N3CCCC3C(=O)N(C)CC(=O)N(C)C(C(C)C)C(=O)OC2C)c2c1Oc1c(c(C(=O)NC3C(=O)NC(C(C)C)C(=O)N4CCCC4C(=O)N(C)CC(=O)N(C)C(C(C)C)C(=O)OC3C)c3nc(-c4ccccc4)c(=O)oc3c1C)N2 (stereo not given)
dose: 1.0 mg/kg/injection, schedule: Q04DX003 (ip), vehicle: water
  T/C: -36 % of control and 37 % of control

## O=C1C(=O)c2cccnc2-c2ncccc21
dose: 5.0 mg/kg/injection, schedule: Q04DX003 (ip), vehicle: Klucel (hydroxypropylcellulose) (HPC)
  T/C: 26 % of control and 70 % of control

## O=C1C=C(N2CC2)C(=O)C(N2CC2)=C1N1CC1
dose: 50.0 micrograms/kg/injection, schedule: Q04DX003 (ip), vehicle: saline
  T/C: 36 % of control and 70 % of control
dose: 200.0 micrograms/kg/injection, schedule: Q04DX003 (ip), vehicle: saline
  T/C: 1 % of control and 30 % of control

## O=C1CN(CO)C(=O)N1CO
dose: 100.0 mg/kg/injection, schedule: Q04DX003 (ip), vehicle: saline
  T/C: 82 % of control and 154 % of control
dose: 200.0 mg/kg/injection, schedule: Q04DX003 (ip), vehicle: saline
  T/C: 94 % of control and 162 % of control

## COc1ccc(C(C)c2cc3c(cc2OC)OCO3)cc1 (stereo not given)
[2]
  T/C: 19 % of control and 52 % of control

## CC1=CCCC2C1(C)CCC(C)C2(C)Cc1cc(O)ccc1O (stereo not given)
[1]
  T/C: 29 % of control and 103 % of control
[3]
  T/C: 15 % of control and 103 % of control
dose: 400.0 mg/kg/injection, schedule: Q04DX003 (ip), vehicle: Klucel (hydroxypropylcellulose) (HPC)
  T/C: 28 % of control and 152 % of control

## COc1cc(C)c(C2NC(=O)c3ccccc3N2)cc1C (stereo not given)
dose: 600.0 mg/kg/injection, schedule: Q04DX003 (ip), vehicle: Klucel (hydroxypropylcellulose) (HPC)
  T/C: 6 % of control and 104 % of control

## N#CC(C#N)=NNc1ccc2cn[nH]c2c1
dose: 25.0 mg/kg/injection, schedule: Q04DX003 (ip), vehicle: Klucel (hydroxypropylcellulose) (HPC)
  T/C: 36 % of control and 186 % of control
[3]
  T/C: -53 % of control and 47 % of control

## COc1cc2c[n+](C)c3c(c2cc1OC)Cc1cc2c(cc1-3)OCO2
dose: 37.5 mg/kg/injection, schedule: Q04DX003 (ip), vehicle: saline with Tween-80
  T/C: 27 % of control and 95 % of control
dose: 75.0 mg/kg/injection, schedule: Q04DX003 (ip), vehicle: saline with Tween-80
  T/C: 37 % of control and 75 % of control
dose: 150.0 mg/kg/injection, schedule: Q04DX003 (ip), vehicle: saline with Tween-80
  T/C: -40 % of control and 4 % of control

## CCOc1cc2c(cc1C(C)c1ccc(OC)cc1)OCO2 (stereo not given)
dose: 150.0 mg/kg/injection, schedule: Q04DX003 (ip), vehicle: distilled water + alcohol
  T/C: 10 % of control and 40 % of control

## Cc1c(O)/c(=C\O)c2nc3c(=O)ccc(C(=O)NCCN(C)C)c3[nH]c2c1=O
dose: 72.0 mg/kg/injection, schedule: Q04DX003 (ip), vehicle: water
  T/C: 55 % of control and 122 % of control
dose: 200.0 mg/kg/injection, schedule: Q04DX003 (ip), vehicle: water
  T/C: 13 % of control, 59 % of control, 76 % of control

## Cc1ccc(C(=Nc2ccccc2)N=P(c2ccccc2)(c2ccccc2)c2ccccc2)cc1
dose: 25.0 mg/kg/injection, schedule: Q04DX003 (ip), vehicle: saline with Tween-80
  T/C: 78 % of control and 104 % of control
[2]
  T/C: 66 % of control and 117 % of control

## Cc1c2oc3c(C)ccc(C(=O)N[C@@H]4C(=O)N[C@H](C(C)C)C(=O)N5CCC[C@H]5C(=O)N(C)CC(=O)N(C)[C@@H](C(C)C)C(=O)O[C@H]4C)c3nc-2c(C(=O)N[C@@H]2C(=O)N[C@H](C(C)C)C(=O)N3CCC[C@H]3C(=O)N(C)CC(=O)N(C)[C@@H](C(C)C)C(=O)O[C@H]2C)c(N)c1=O (I: [aThr][dV]P[Sar][NMeV] / II: [aThr][dV]P[Sar][NMeV]; ester I:1-I:C, II:1-II:C; linker I:N-II:N via Actinocin(9to1))
dose: 0.13 mg/kg/injection, schedule: Q04DX003 (ip), vehicle: saline
  T/C: 9 % of control, 30 % of control, 38 % of control
dose: 0.2 mg/kg/injection, schedule: Q04DX003 (ip), vehicle: saline
  T/C: 7 % of control, 38 % of control, 47 % of control
dose: 0.3 mg/kg/injection, schedule: Q04DX003 (ip), vehicle: saline
  T/C: -28 % of control, 21 % of control, 31 % of control

## O=C(Nc1cccnc1)c1ccc([N+](=O)[O-])s1
[4]
  T/C: 7 % of control and 92 % of control
[2]
  T/C: -12 % of control and 26 % of control
dose: 400.0 mg/kg/injection, schedule: Q04DX003 (ip), vehicle: saline with Tween-80
  T/C: 28 % of control and 75 % of control

## O=P1(N(CCCl)CCCl)NCCCO1 (stereo not given)
dose: 40.0 mg/kg/injection, schedule: Q04DX003 (ip), vehicle: saline
  T/C: 26 % of control, 92 % of control, 105 % of control
dose: 60.0 mg/kg/injection, schedule: Q04DX003 (ip), vehicle: saline
  T/C: 52 % of control, 58 % of control, 85 % of control
dose: 90.0 mg/kg/injection, schedule: Q04DX003 (ip), vehicle: saline
  T/C: 42 % of control, 52 % of control, 108 % of control

## CN(Cc1cnc2nc(N)nc(N)c2n1)c1ccc(C(=O)N[C@@H](CCC(=O)O)C(=O)O)cc1
dose: 12.0 mg/kg/injection, schedule: Q04DX003 (ip), vehicle: sodium bicarbonate
  T/C: 25 % of control and 106 % of control
dose: 18.0 mg/kg/injection, schedule: Q04DX003 (ip), vehicle: sodium bicarbonate
  T/C: 7 % of control and 84 % of control

## O=NNc1cccnc1
dose: 12.5 mg/kg/injection, schedule: Q04DX003 (ip), vehicle: water
  T/C: 81 % of control and 109 % of control
dose: 25.0 mg/kg/injection, schedule: Q04DX003 (ip), vehicle: water
  T/C: 70 % of control and 112 % of control

## Cc1cc(Br)c2nsnc2c1[N+](=O)[O-]
dose: 300.0 mg/kg/injection, schedule: Q04DX003 (ip), vehicle: saline with Tween-80
  T/C: 30 % of control and 82 % of control
dose: 600.0 mg/kg/injection, schedule: Q04DX003 (ip), vehicle: saline with Tween-80
  T/C: 13 % of control and 88 % of control

## CC(/C=C/C=C/C=C/C=C/C=C/C(O)=C1/C(=O)C(CCC(=O)O)N(C)C1=O)=C\C(C)C(OC1CC(O)C(O)C(C)O1)C(C)C (stereo not given)
dose: 125.0 mg/kg/injection, schedule: Q04DX003 (ip), vehicle: water
  T/C: 13 % of control and 62 % of control

## CC1Oc2cc3c(-c4c(O)cc(O)c5c(O)c6c(cc45)OC(C)C(C)C6=O)c(O)cc(O)c3c(O)c2C(=O)C1C (stereo not given)
dose: 1.5 mg/kg/injection, schedule: Q04DX003 (ip), vehicle: suspension in saline
  T/C: 71 % of control and 194 % of control

## COc1cc2c(c(OC)c1O)-c1ccc(OC)c(=O)cc1[C@@H](NC(=O)C(F)(F)F)CC2
dose: 20.0 mg/kg/injection, schedule: Q04DX003 (ip), vehicle: Klucel (hydroxypropylcellulose) (HPC)
  T/C: -78 % of control and 21 % of control

## C=CCOc1cc2c(cc1C(C)c1ccc(OC)cc1)OCO2 (stereo not given)
dose: 300.0 mg/kg/injection, schedule: Q04DX003 (ip), vehicle: Klucel (hydroxypropylcellulose) (HPC)
  T/C: 23 % of control and 51 % of control

## CC(C)N1C(=O)N(Cl)C2C1N(Cl)C(=O)N2Cl (stereo not given)
[4]
  T/C: 66 % of control and 98 % of control
[2]
  T/C: 68 % of control and 178 % of control

Reference: PubChem BioAssay AID278 (DTP/NCI, 2004)
